Reference: the supplement of paper PMC3722116
Growth of fresh clinical P. falciparum isolates by hypoxanthine uptake over 42 h; for most isolates 1.6-1,647 nM mefloquine, 0.044-87 nM artesunate, 10-10,256 nM chloroquine, 2.4-236 nM lumefantrine. EC50, lower = more sensitive; slope from the same fit, higher = steeper. No active / inactive call. Fits with a coefficient of variation above 100% are not listed here; 15-28% of fits exceed 15%. Isolates are numbered anew.

How the values were obtained:
lumefantrine [1] = compound: T1, CCCCN(CCCC)CC(O)c1cc(Cl)cc2c1-c1ccc(Cl)cc1/C2=C/c1ccc(Cl)cc1 [lumefantrine]; experiment: slope of the dose-response curve (dimensionless); higher = steeper concentration-effect curve
Protocol: (§1)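 Hypoxanthine uptake by fresh isolates, duplicate serial dilutions, 24 h of drug plus 18 h after the label; sigmoid fit per isolate.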

chloroquine [2] = compound: T2, CCN(CC)CCCC(C)Nc1ccnc2cc(Cl)ccc12 [chloroquine]; experiment: as above
Protocol: as §1

artesunate [3] = compound: T3, C[C@H]1[C@H](OC(=O)CCC(=O)O)O[C@@H]2O[C@@]3(C)CC[C@H]4[C@H](C)CC[C@@H]1[C@@]24OO3 [artesunate]; experiment: as above
Protocol: as §1

mefloquine [4] = compound: T4, OC(c1cc(C(F)(F)F)nc2c(C(F)(F)F)cccc12)C1CCCCN1 [mefloquine]; experiment: as above
Protocol: as §1

lumefantrine [5] = compound: T1, lumefantrine
Protocol: as §1

chloroquine [6] = compound: T2, chloroquine
Protocol: as §1

artesunate [7] = compound: T3, artesunate
Protocol: as §1

mefloquine [8] = compound: T4, mefloquine
Protocol: as §1

Row | Test System | slope (lumefantrine [1]) | slope (chloroquine [2]) | slope (artesunate [3]) | slope (mefloquine [4]) | EC50 of parasite growth (lumefantrine [5]) | EC50 of parasite growth (chloroquine [6]) | EC50 of parasite growth (artesunate [7]) | EC50 of parasite growth (mefloquine [8])
1 | Plasmodium falciparum isolate 103 (pfmdr1 allele: 86N, 1042N, pfmdr1 copies: 2) | 1.95 | 3.49 | 6.27 | 2.52 | 0.0127 µg/mL | 0.149 µg/mL | 0.000417 µg/mL | 0.0367 µg/mL
2 | Plasmodium falciparum isolate 274 (pfmdr1 allele: 86N, 1042N, pfmdr1 copies: 1) | 0.667 | 2.59 | 3.18 | 1.68 | 0.00285 µg/mL | 0.0806 µg/mL | 0.000387 µg/mL | 0.00496 µg/mL
3 | Plasmodium falciparum isolate 241 (pfmdr1 allele: 86N, 1042N, pfmdr1 copies: 2) | 1.29 | 3.63 | 1.71 | 2.18 | 0.0132 µg/mL | 0.0595 µg/mL | 0.000463 µg/mL | 0.0221 µg/mL
4 | Plasmodium falciparum isolate 24 (pfmdr1 allele: 86N, 1042N, pfmdr1 copies: 1) | 2 | 5.32 | 4.79 | 2.8 | 0.00994 µg/mL | 0.167 µg/mL | 0.00199 µg/mL | 0.0249 µg/mL
5 | Plasmodium falciparum isolate 82 (pfmdr1 allele: 86N, 1042N, pfmdr1 copies: 2) | 2.25 | 2.22 | 7.11 | 2.36 | 0.083 µg/mL | 0.0579 µg/mL | 0.00125 µg/mL | 0.1 µg/mL
6 | Plasmodium falciparum isolate 436 (pfmdr1 allele: 86N, 1042N, pfmdr1 copies: 1) | 3.49 | 3.71 | 3.32 | 4.34 | 0.00966 µg/mL | 0.0788 µg/mL | 0.000881 µg/mL | 0.0119 µg/mL
7 | Plasmodium falciparum isolate 414 (pfmdr1 allele: 86N, 1042N, pfmdr1 copies: 1) | 1.9 | 5.64 | 4.9 | 2.18 | 0.0359 µg/mL | 0.34 µg/mL | 0.000827 µg/mL | 0.0338 µg/mL
8 | Plasmodium falciparum isolate 219 (pfmdr1 allele: 86N, 1042N, pfmdr1 copies: 3) | 1.94 | 3.74 | 7.12 | 4.44 | 0.0165 µg/mL | 0.1 µg/mL | 0.000514 µg/mL | 0.0621 µg/mL
9 | Plasmodium falciparum isolate 398 (pfmdr1 allele: 86N, 1042N, pfmdr1 copies: 1) | 2.46 | 4.11 | 9.99 | 3.97 | 0.0391 µg/mL | 0.0907 µg/mL | 0.000948 µg/mL | 0.0457 µg/mL
10 | Plasmodium falciparum isolate 32 (pfmdr1 allele: 86N, 1042N, pfmdr1 copies: 1) | 1.84 | 11 | 7.09 | 2.42 | 0.052 µg/mL | 0.0871 µg/mL | 0.000641 µg/mL | 0.0332 µg/mL
11 | Plasmodium falciparum isolate 473 (pfmdr1 allele: 86N, 1042N, pfmdr1 copies: 2) | 2.99 | 2.49 | 5.55 | 3.81 | 0.0177 µg/mL | 0.0448 µg/mL | 0.000832 µg/mL | 0.0371 µg/mL
12 | Plasmodium falciparum isolate 460 (pfmdr1 allele: 86N, 1042N, pfmdr1 copies: 1) | 3 | 4.57 | 4.42 | 1.8 | 0.0126 µg/mL | 0.295 µg/mL | 0.000422 µg/mL | 0.0157 µg/mL
13 | Plasmodium falciparum isolate 198 (pfmdr1 allele: 86N, 1042N, pfmdr1 copies: 1) | 5.17 | 3.99 | 10 | 2.29 | 0.04 µg/mL | 0.0664 µg/mL | 0.000782 µg/mL | 0.0272 µg/mL
14 | Plasmodium falciparum isolate 440 (pfmdr1 allele: 86N, 1042N, pfmdr1 copies: 1) | 2.5 | 3.83 | 4.42 | 2.76 | 0.0329 µg/mL | 0.0784 µg/mL | 0.000791 µg/mL | 0.0257 µg/mL
15 | Plasmodium falciparum isolate 471 (pfmdr1 allele: 86N, 1042N, pfmdr1 copies: 2) | 2.88 | 4.16 | 5.66 | 2.29 | 0.0294 µg/mL | 0.0841 µg/mL | 0.00184 µg/mL | 0.0328 µg/mL
16 | Plasmodium falciparum isolate 144 (pfmdr1 allele: 86N, 1042N, pfmdr1 copies: 1) | 2.71 | 4.58 | 4.81 | 2.96 | 0.05 µg/mL | 0.0702 µg/mL | 0.00122 µg/mL | 0.0288 µg/mL
17 | Plasmodium falciparum isolate 238 (pfmdr1 allele: 86N, 1042N, pfmdr1 copies: 1) | 1.48 | 2.58 | 3.31 | 3.27 | 0.00195 µg/mL | 0.0504 µg/mL | 0.000311 µg/mL | 0.00592 µg/mL
18 | Plasmodium falciparum isolate 195 (pfmdr1 allele: 86N, 1042N, pfmdr1 copies: 2) | 1.24 | 2.93 | 4.11 | 1.65 | 0.0149 µg/mL | 0.111 µg/mL | 0.000405 µg/mL | 0.0344 µg/mL
